# PubChem BioAssay AID624202 (National Center for Advancing Translational Sciences (NCATS), 2012)
# Screen size: about 380,000 compounds; about 4,000 (1.1%) were called active. Inconclusive results, whose numbers are uncertain, are shown with a selection of clear calls. The call rests on the fitted dose curve; in most records, active means well fitted activation curve with a large enough effect; inconclusive means small, poorly fitted or top-dose-only effect; inactive means no such curve, though single readings can be large or run the other way. Potencies of inconclusive entries are doubtful fits and often do not repeat.
# Assay: qHTS Assay to Identify Small Molecule Activators of BRCA1 Expression; further: nearly all actives have a fitted effect of over 80% in size
# Conditions: MCF7-BRCA1-FFLuc reporter, luminescence, 48 h; activation: at 46.1 µM (top of the series), scaled: vehicle 0%, 10 µM genistein 100% unless noted
# How it was run: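 MCF7-BRCA1-FFLuc, 2000 cells/well; 2 h attach, 37 °C/5% CO2; compound 48 h; luciferase substrate 15 min; luminescence end-point. Norm. to genistein 10 microM max activation and DMSO; concentration-response curves fitted.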
# Potency means the concentration at half of the fitted maximal effect; tags describe the fitted curve by direction and shape.
Structure (SMILES),Potency,activation
COc1cccc(N2CCN(c3nc(C)cc(=O)[nH]3)CC2)c1,"inconclusive: 4.47 µM [activator, partial curve, poor fit]",
CCCCNC(=O)COC(=O)c1c2c(nc3ccccc13)CCC2,,inactive: -13.9%
COc1ccc(-c2coc3c(C(=O)Nc4cccnc4)cccc23)c(C)c1,"inconclusive: 10 µM [activator, partial curve, poor fit]",
COc1cc2c(NC3CCN(C)CC3)nc(N3CCCN(C)CC3)nc2cc1OCc1ccccc1,,inactive: -59.1%
COc1cccc(N2CCN(C(=O)c3ccc4nc(N5CCCCC5)sc4c3)CC2)c1,"inconclusive: 1.58 µM [activator, full curve, poor fit]",
O=C(NC1CCCCCCC1)c1ccc(Br)o1,"inconclusive: 12.6 µM [activator, partial curve, poor fit]",
O=C1c2ccccc2-c2onc3ccc(NCc4ccco4)c1c23,,inactive: -43.7%
Cc1ccc(OCC(=O)Nc2ccc3[nH]c(=O)sc3c2)cc1,"inconclusive: 0.316 µM [activator, full curve, poor fit]",
Cc1c(Cl)cccc1NC(=S)NCCc1ccccn1,,inactive: 3.91%
COC(=O)C1C(=O)c2c([nH]c(C(=O)OCCSC)c2C)CC1C (stereo unspecified),active: 28.2 µM,
CC(C)c1ccc(-c2nnc(N)s2)cc1,"inconclusive: 0.562 µM [activator, full curve, poor fit]",
Cc1cc(NCc2ccccn2)n2nc(C)c(-c3ccccc3)c2n1,,inactive: -48.6%
CCCCCCCCn1cnc2c(N)c(C)c(C)cc21,,inactive: -19.7%
Nc1cc(N)nc(SCc2cccc(F)c2)n1,active: 12.6 µM,
O=C(Nc1ccc(C(=O)NCc2ccccc2Cl)cc1)C1=CSCCO1,active: 11.2 µM,
Oc1ccc(-c2cccc(-c3ccc(O)cc3)c2)cc1,active: 10 µM,
Cc1cc(F)ccc1-c1cc(C(=O)NCc2ccco2)[nH]n1,,inactive: 41.7%
O=[N+]([O-])c1cccc(-c2ccc(/C=N/NC(=S)NCc3ccco3)o2)c1,,inactive: -4.93%
Cn1c(SCc2ccccc2)nnc1-c1cccs1,"inconclusive: 25.1 µM [activator, single point]",
COC(=O)c1ccccc1NC(=O)NC1CCC(C)CC1 (stereo unspecified),"inconclusive: 35.5 µM [activator, single point]",
COc1cc(/C=N/OCC(=O)Nc2cc(C)cc(C)c2)ccc1OCc1ccc(Cl)cc1,"inconclusive: 2.51 µM [activator, full curve, poor fit]",
Cc1cccn2c(=O)c3cc(C(=O)NCCCN4CCCC4=O)n(C)c3nc12,"inconclusive: 28.2 µM [activator, single point]",
C=CCn1c(O)c(N=NC(=S)Nc2ccccc2F)c2cc(S(=O)(=O)N3CCOCC3)ccc21,,inactive: -52.9%
O=C1COc2ccc(OCc3ccc(F)cc3)cc21,active: 2.82 µM,
COc1cccc(N/C=C/C(=O)c2ccc(C)cc2)c1,"inconclusive: 1.78 µM [activator, full curve, poor fit]",
CC(C)(C)c1ccc(SCCc2ccccn2)cc1,"inconclusive: 12.6 µM [activator, partial curve, poor fit]",

Structure (SMILES),Potency,activation
C=C(C)Cn1c2ccc(NC(=O)CCc3cccnc3)cc2c(=O)n1C,,inactive: -8.31%
O=C(c1ccc2c(=O)n3c(nc2c1)CCCCC3)N1CCc2ccccc21,"inconclusive: 11.2 µM [activator, partial curve, poor fit]",
COc1ccc(/C(C)=N/NC(=O)c2nc(C)cc(C)n2)cc1,"inconclusive: 10 µM [activator, single point]",
CC(C(=O)Nc1ccc(C#N)cc1)N(C)CC(=O)Nc1cccc(F)c1 (stereo unspecified),,inactive: 18.1%
Cc1ccccc1OCc1nc2ccccc2[nH]1,"inconclusive: 2.51 µM [activator, partial curve, poor fit]",
O=C(CCc1nnc(-c2ccc(-c3ccccc3)cc2)o1)N1CCCCC1,,inactive: -4.4%
Cc1csc(NC(=O)c2ccoc2C)n1,"inconclusive: 15.8 µM [activator, single point]",
O=C(NCc1ccc(F)cc1)c1cnn2ccccc12,"inconclusive: 2.51 µM [activator, full curve, poor fit]",
O=C1NC(=O)C(=Cc2ccc(Cl)cc2Cl)S1,"inconclusive: 1.58 µM [activator, partial curve, poor fit]",
COc1ccccc1NC(=O)Nc1ccc(C(=O)N2CCCCC2)cc1,"inconclusive: 2.82 µM [activator, full curve, poor fit]",
CS(=O)(=O)Nc1ccc(C(=O)NCCC2=CCCCC2)cc1,"inconclusive: 12.6 µM [activator, partial curve, poor fit]",
CCNc1ccc(C(=O)OCC(=O)N2CCCC2)cc1[N+](=O)[O-],,inactive: -15.5%
Clc1nc2c(ccc3ccccc32)[nH]1,"inconclusive: 11.2 µM [activator, partial curve, poor fit]",
Cc1cc(C)nc(SCCCn2c(=O)[nH]c3ccccc32)n1,,inactive: 3.49%
O=C(O)C(Cc1ccccc1)N1C(=O)/C(=C/C=C/c2ccco2)SC1=S (stereo unspecified),,inactive: -23.2%
CNC(=O)c1[nH]cnc1C(=O)Nc1ccc(F)cc1,,inactive: -18.1%
CC1CCN(c2ccc(C(=O)NCc3cccs3)cn2)CC1,active: 14.1 µM,
Cc1ccc(O)c(NC(=O)c2cc(-c3ccccc3Cl)on2)c1,"inconclusive: 5.01 µM [activator, partial curve, poor fit]",
CCOC(=O)c1c(-c2ccccc2)nc2ccc(C)cn12,,inactive: 43.2%
COc1ccc(-c2coc3cc(O)ccc3c2=O)cc1,"inconclusive: 2.24 µM [activator, full curve, poor fit]",
O=C(Nc1nnc(C2CCCC2)s1)C1CCC1,active: 11.2 µM,
O=C(CSc1nc2ccccc2[nH]1)Nc1ccc2c(c1)OCCO2,active: 10 µM,
Cc1c(C(=O)Nc2ccccc2)cnn1-c1ccccc1,"inconclusive: 1.78 µM [activator, partial curve, poor fit]",
Cc1cccc(C(=O)Nc2ccc3ccccc3c2)c1,"inconclusive: 1.58 µM [activator, partial curve, poor fit]",
CC(=O)NCCc1nc2cc(NC(=O)c3cccc([N+](=O)[O-])c3)ccc2n1C,active: 5.62 µM,
COC(=O)COc1ccc(S(=O)(=O)NCCC2=CCCCC2)cc1C,,inactive: -4.9%

Structure (SMILES),Potency,activation
NC(=O)c1ccccc1N/C=C/C(=O)c1cccs1,"inconclusive: 1.26 µM [activator, full curve, poor fit]",
CCN(CC)C(=O)c1cc2sc3ccccc3c2s1,"inconclusive: 2.51 µM [activator, full curve, poor fit]",
Cc1ccc(CNc2nc3ccccc3n2C)cc1,"inconclusive: 0.501 µM [activator, full curve, poor fit]",
Cc1cc(=O)n2[nH]c(-c3ccc(F)cc3)cc2n1,"inconclusive: 8.91 µM [activator, partial curve, poor fit]",
COc1cccc(OCCSc2nc3ccccc3c(=O)[nH]2)c1,"inconclusive: 17.8 µM [activator, single point]",
O=C(NC1CCCCC1)c1cc(C2CC2)on1,"inconclusive: 14.1 µM [activator, partial curve, poor fit]",
O=C(Nc1ccc(F)cc1)c1ccc(NC(=O)C2CCCO2)cc1 (stereo unspecified),"inconclusive: 10 µM [activator, partial curve, poor fit]",
CCc1ccc(OCC(=O)O/N=C(\N)c2ccncc2)c(Br)c1,"inconclusive: 8.91 µM [activator, partial curve, poor fit]",
Nc1ccn([C@@H]2O[C@H](C(=O)NCc3ccc4c(c3)OCO4)[C@@H](O)[C@H]2O)c(=O)n1,,inactive: 3.2%
COc1ccc(C2CC(c3ccc(Br)cc3)=NN2C(=S)Nc2ccccc2)cc1 (stereo unspecified),"inconclusive: 31.6 µM [activator, single point]",
CCOc1cc(-c2c(C#N)c(N)nc3c2CCCC3C)ccc1O (stereo unspecified),,inactive: -67.1%
O=C(Cn1cnc2c(oc3ccccc32)c1=O)c1ccccc1,active: 7.08 µM,
Cc1ccc(/C=N/Nc2nc(Cl)c(Cl)cc2Cl)s1,"inconclusive: 25.1 µM [activator, single point]",
c1ccc(CCNCC2COc3ccccc3O2)cc1 (stereo unspecified),"inconclusive: 35.5 µM [activator, single point]",
CCOc1ccc(S(=O)(=O)N2CCC(C(=O)NCC3CCCO3)CC2)cc1C (stereo unspecified),,inactive: -29.9%
COc1ccc(C2=NN(C(C#N)c3ccc(OC)cc3)C(c3ccccc3)C2)cc1 (stereo unspecified),"inconclusive: 12.6 µM [activator, partial curve, poor fit]",
COc1ccc(C(C(=O)NC2CCCC2)N(Cc2ccco2)C(=O)c2snc(C(N)=O)c2N)cc1OC (stereo unspecified),,inactive: -24.4%
O=C(OCCN1CCOCC1)c1ccc2c(c1)OCCO2,active: 7.94 µM,
O=C(c1c[nH]c2ccccc12)N1CCN(c2ccccc2)CC1,"inconclusive: 15.8 µM [activator, single point]",
Clc1ccc(Nc2nc3cccnc3s2)cc1,"inconclusive: 2.24 µM [activator, full curve, poor fit]",
Clc1ccccc1CSc1cc2c(nn1)-c1ccccc1CC2,active: 3.98 µM,
CCc1ccc(NC(=O)c2cc(C(C)C)on2)cc1,"inconclusive: 2 µM [activator, full curve, poor fit]",
Cc1ccc(COc2ccc(/C=N/O)cc2)cc1,"inconclusive: 1.41 µM [activator, full curve, poor fit]",
CCC(O)(CC)C(=O)N/N=C/c1cc(Br)cc(Br)c1O,,inactive: -78.4%
